# The supplement of paper PMC4723716
# ± gives the uncertainty stated by the source. In all, about 9,900 compounds were measured (“viability index relative to DMSO control”: median about 1, lowest 2% from about 0.85 on). This is one part of the list.
# System: Plasmodium falciparum NF54 stage V gametocytes
# Assay: viability index relative to DMSO control (fraction); higher = less gametocyte killing
# Details: 2.5 µM, incubation time: 72 h
# Summary of the method: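 Compound at 2.5 µM was incubated for 72 hr at 37°C under low oxygen with P. falciparum NF54 stage V gametocytes (0.75% gametocytemia, 1.25% hematocrit, 10 µl, serum-free screening medium) in 1,536-well plates. Staining used 3 µl of 2.5 µM MitoTracker Red CMXRos plus 0.13% saponin for one to two hours, and red particles of 20–70 µm2 were counted in one imaged field per well. Each viability index is that count relative to the plate mean of solvent-only wells.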
# [1] = library set: Broad Institute DOS
SMILES,viability index [1],viability index (library set: Broad Institute Blood Stage)
O=C(Nc1ccccc1F)N1CC(=O)N2[C@H](CO)[C@@H](c3ccc(-c4cccnc4)cc3)[C@H]2C1,0.984 ± 0.021,
C[C@@H](NC(=O)C[C@@H]1CC[C@H]2[C@@H](COc3ccc(NC(=O)C4CCOCC4)cc3C(=O)N2C)O1)c1ccccc1,1.09 ± 0.045,
COc1cccc(-c2ccc3c(c2)O[C@H](CN(C)Cc2cccnc2)[C@H](C)CN([C@@H](C)CO)S3(=O)=O)c1,0.982 ± 0.053,
COCC(=O)N1CC2(C1)[C@H](c1ccc(-c3cccc(F)c3)cc1)[C@@H](CO)N2C(=O)C1CC1,1.11 ± 0.046,
C[C@@H](O)C#Cc1ccc([C@H]2[C@H]3CN(C(=O)c4ccc5c(c4)OCO5)CCCCN3[C@H]2CO)cc1,0.983 ± 0.017,
CN(C)CC(=O)N1CCCCN2[C@H](CO)[C@@H](c3ccc(-c4cncnc4)cc3)[C@H]2C1,1.01 ± 0.063,
CO[C@H]1CC[C@@H]2CCOc3c(C#N)cccc3C(=O)N(C)C[C@H](c3ccccc3)CC(=O)N(C)C[C@H]1O2,1.14 ± 0.03,
C/C=C/c1ccc([C@@H]2[C@H](CO)N(CC3CCCC3)C23CN(S(=O)(=O)CC)C3)cc1,0.986 ± 0.045,
CCCN1[C@H](C(=O)NCCCN2CCOCC2)[C@@H](CO)[C@@H]2Cn3c(ccc(-c4ccncc4)c3=O)[C@@H]21,1.08 ± 0.065,
COc1ccc2c3c([nH]c2c1)[C@@H](CO)N(C)C[C@]31CN(C1)S(C)(=O)=O,1 ± 0.12,
C[C@H]1CN([C@@H](C)CO)C(=O)c2cc(N(C)C)ccc2O[C@@H]1CN(C)CC1CCCCC1,1.01 ± 0.12,
CN1C(=O)c2cc(NS(=O)(=O)c3ccc(Cl)cc3)ccc2OC[C@H]2O[C@@H](CC(=O)Nc3ccc4c(c3)COC4)CC[C@@H]21,1.026 ± 0.0093,
NCC[C@H]1CC[C@H](NC(=O)NC2CCCCC2)[C@H](CO)O1,1.05 ± 0.023,
CN(C)C(=O)c1ccc(-c2ccc([C@@H]3[C@@H](C#N)N(C(=O)C4CC4)[C@H]3CO)cc2)cc1,1.06 ± 0.068,
Cc1ccccc1-c1ccc([C@@H]2[C@@H](CO)N3C(=O)CN(C(=O)c4ccncc4)C[C@@H]23)cc1,1.05 ± 0.076,
CNC[C@@H]1OCCCC[C@H](C)Oc2ccc(NS(=O)(=O)c3ccc(F)cc3)cc2C(=O)N([C@@H](C)CO)C[C@H]1C,1.07 ± 0.018,
CO[C@@H]1CN(C)C(=O)c2cc(NS(=O)(=O)c3ccc(Cl)cc3)ccc2OC[C@H](C)N(C(=O)NC(C)C)C[C@@H]1C,1.06 ± 0.06,
O=C1N[C@H](Cc2ccccc2)COCc2cnnn2CC[C@H]1Cc1ccc(-c2ccccc2)cc1,1.07 ± 0.028,
Cc1ccc(S(=O)(=O)N(C)C[C@H]2OCCCC[C@H](C)Oc3ccc(NC(=O)c4ccncc4)cc3C(=O)N([C@H](C)CO)C[C@@H]2C)cc1,1.08 ± 0.039,
Cc1noc(C)c1NC(=O)Nc1ccc2c(c1)CC(=O)N([C@@H](C)CO)C[C@H](C)[C@H](CN(C)Cc1ccc(C(F)(F)F)cc1)O2,1.02 ± 0.13,
C/C=C/c1ccc([C@H]2[C@@H](CNC(=O)CC3CC3)N(C(=O)CC)[C@H]2CO)cc1,1.05 ± 0.054,
O=C(CN1CCOCC1)N1CC[C@@H]2[C@@H](CO)Nc3ccc(Br)cc3[C@@H]21,1.12 ± 0.063,
C/C=C/c1ccc([C@H]2[C@@H](CO)N(C(=O)NC3CCCCC3)[C@H]2C#N)cc1,1.11 ± 0.16,
Cc1noc(C)c1S(=O)(=O)N(C)C[C@@H]1OCCCC[C@@H](C)Oc2ccc(NS(=O)(=O)c3cn(C)cn3)cc2C(=O)N([C@@H](C)CO)C[C@H]1C,1.11 ± 0.094,

SMILES,viability index [1],viability index (library set: Broad Institute Blood Stage)
COc1ccc(C[C@H]2CCn3cc(nn3)COCCCNC2=O)cc1,1.01 ± 0.14,
Cc1ccc(S(=O)(=O)Nc2ccc3c(c2)C(=O)N([C@@H](C)CO)C[C@@H](C)[C@@H](CN(C)Cc2ccc(C(F)(F)F)cc2)O3)cc1,1.04 ± 0.07,
CCCNC(=O)N1C[C@]2(CN(Cc3cccnc3)C2)c2c([C@@H]1CO)n(C)c1cc(OC)ccc21,1.02 ± 0.09,
Cc1noc(C)c1NC(=O)N(C)C[C@H]1Oc2ccc(NC(=O)CCCN(C)C)cc2C(=O)N([C@@H](C)CO)C[C@@H]1C,1 ± 0.035,
COc1cccc(-c2ccc([C@@H]3[C@H]4CNC[C@@H]3N4C(=O)Nc3ccc4c(c3)OCO4)cc2)c1,1.08 ± 0.064,
O=C(NCC[C@@H]1CC[C@H](NS(=O)(=O)c2ccc(F)cc2)[C@@H](CO)O1)c1ccc2c(c1)OCO2,1.005 ± 0.01,
N#Cc1ccc(-c2ccc([C@@H]3[C@H](CO)N4C(=O)CNC[C@@H]34)cc2)cc1,1.05 ± 0.028,
COc1cccc(C#Cc2ccc([C@@H]3[C@@H](CO)N4C(=O)CN(C(=O)Cc5cccnc5)C[C@@H]34)cc2)c1,0.969 ± 0.015,
COCC(=O)N1C[C@]2(CN(Cc3ccccc3)C2)c2c([C@H]1CO)n(C)c1cc(OC)ccc21,0.972 ± 0.1,
O=C(Nc1cccc(Cl)c1)N1C[C@@H]2[C@H](c3ccccc31)[C@@H](CO)N2Cc1cccnc1,0.992 ± 0.035,
CCN(C[C@H]1[C@@H](c2ccccc2)[C@H](CO)N1CC1CC1)C(=O)c1ccccn1,1.079 ± 0.0086,
Cc1ccc(S(=O)(=O)Nc2ccc3c(c2)CC(=O)N([C@H](C)CO)C[C@H](C)[C@H](CN(C)S(=O)(=O)c2ccccc2)O3)cc1,0.99 ± 0.045,
COC(=O)C[C@@H]1C[C@@H]2c3cc(N)ccc3O[C@@H]2[C@@H](CO)O1,1.04 ± 0.064,
CCC(=O)NC[C@@H]1[C@@H](c2ccc(-c3ccc(F)cc3)cc2)[C@@H](CO)N1C(=O)CC,1.0914 ± 0.00018,
CCS(=O)(=O)N1CC2(C1)[C@@H](c1ccccc1)[C@H](CO)N2Cc1ccccn1,1.021 ± 0.0087,
O=C(C[C@H]1CC[C@H]2[C@@H](COC[C@@H](O)CN2S(=O)(=O)c2ccc(F)cc2)O1)NCCN1CCCCC1,1.01 ± 0.12,
COc1ccccc1C#Cc1ccc([C@@H]2[C@@H](C#N)N(C(=O)C3CCC3)[C@H]2CO)cc1,1.03 ± 0.022,
O=C(Cc1ccncc1)N1CC[C@@H]2[C@H](CO)Nc3ccc(-c4ccccc4F)cc3[C@@H]21,1.05 ± 0.044,
C[C@H](CO)N1C[C@H](C)[C@H](CN(C)C(=O)c2ccncc2)OCCCC[C@H](C)Oc2ccc(NC(=O)CCC(F)(F)F)cc2C1=O,1.09 ± 0.12,
C[C@@H]1CCn2nncc2COC[C@H]2CCCN2C1=O,1.04 ± 0.058,
COc1ccccc1NC(=O)N1[C@H](C#N)[C@H](c2ccccc2)[C@H]1CO,1.101 ± 0.0032,
C/C=C/c1ccccc1[C@H]1[C@@H](C#N)N(C(=O)Cc2ccccn2)[C@@H]1CO,0.949 ± 0.23,
COCC(=O)N1C[C@@H](C)[C@@H](OC)CN(C)C(=O)c2ccc(NC(=O)Nc3cccc(F)c3)cc2OC[C@@H]1C,0.989 ± 0.026,
CCCC(=O)Nc1ccc2c(c1)OC[C@H](C)N(C(=O)c1cccnc1)C[C@H](C)[C@@H](OC)CN(C)C2=O,1.0936 ± 0.00045,

SMILES,viability index [1],viability index (library set: Broad Institute Blood Stage)
O=C(Nc1ccc(C(F)(F)F)cc1)Nc1ccc2c(c1)[C@@H]1C[C@@H](CC(=O)N3CCc4ccccc4C3)O[C@@H](CO)[C@@H]1O2,1.01 ± 0.022,
COc1cccc(C#Cc2ccc([C@@H]3[C@H](CO)N4C(=O)CN(C(=O)Cc5cccnc5)C[C@@H]34)cc2)c1,0.904 ± 0.094,
O=C(c1ccccc1)N1CC(=O)N2[C@H](CO)[C@@H](c3ccc(-c4ccccc4)cc3)[C@H]2C1,1.018 ± 0.0095,
CCS(=O)(=O)Nc1ccc2c(c1)C(=O)N(C)[C@@H]1CC[C@@H](CC(=O)N[C@@H]3CCN(Cc4ccccc4)C3)O[C@@H]1CO2,1.11 ± 0.14,
O=C(C[C@H]1C[C@H]2c3cc(NC(=O)C4CCC4)ccc3O[C@H]2[C@H](CO)O1)NC1CCCC1,1.07 ± 0.043,
COc1cccc(-c2ccc([C@@H]3[C@@H]4CN(C(=O)Nc5ccccc5F)C[C@H]3N4)cc2)c1,1.05 ± 0.11,
C[C@H]1CN([C@@H](C)CO)C(=O)Cc2cc(NC(=O)C3CC3)ccc2O[C@H]1CN(C)S(=O)(=O)c1cn(C)cn1,0.971 ± 0.036,
COc1ccccc1CNC(=O)C[C@H]1C[C@H]2c3cc(NC(=O)C4CCC4)ccc3O[C@H]2[C@H](CO)O1,1.08 ± 0.043,
COc1cccc(NC(=O)N2CC(=O)N3[C@H](CO)[C@H](c4ccc(C#CCC5CCCC5)cc4)[C@@H]3C2)c1,1.1 ± 0.045,
CN(C[C@@H]1[C@@H](c2ccccc2)[C@H](CO)N1Cc1ccccn1)S(C)(=O)=O,1.057 ± 0.0077,
O=C(C[C@H]1C[C@@H]2c3cc(NC(=O)C4CCOCC4)ccc3O[C@@H]2[C@@H](CO)O1)NCCN1CCCCC1,1.1 ± 0.039,
COc1cccc(NC(=O)Nc2ccc3c(c2)C(=O)N(C)C[C@H](OC)[C@H](C)CN(CC2CC2)[C@@H](C)CO3)c1,0.9936 ± 0.008,
C[C@@H]1CN([C@H](C)CO)C(=O)c2cccc(NC(=O)c3nc4ccccc4s3)c2O[C@H]1CN(C)C(=O)NC1CCCCC1,,0.867 ± 0.054
CC(C)C#Cc1ccc([C@@H]2[C@H](CO)N3C(=O)CN(S(=O)(=O)c4ccccc4)C[C@@H]23)cc1,1.08 ± 0.016,
CCS(=O)(=O)N1CC2(C1)[C@@H](c1ccccc1)[C@@H](CO)N2Cc1ccc(F)cc1,1.07 ± 0.015,
C[C@H]1CN([C@@H](C)CO)C(=O)c2cccc(NS(C)(=O)=O)c2O[C@@H]1CN(C)Cc1ccc(-c2ccccc2)cc1,1 ± 0.078,
C/C=C/c1ccc([C@H]2[C@H](CO)N(S(C)(=O)=O)[C@H]2CNCC2CCC2)cc1,0.688 ± 0.08,
C[C@H](CO)N1C[C@H](C)[C@H](CN(C)S(=O)(=O)c2ccc(Cl)cc2)OCCCC[C@H](C)Oc2ccc(NC(=O)Nc3ccc(C(F)(F)F)cc3)cc2C1=O,1.04 ± 0.065,
C[C@H]1CN([C@@H](C)CO)C(=O)c2cccc(NC(=O)c3cnccn3)c2O[C@H]1CN(C)C(=O)NC1CCCCC1,1.01 ± 0.033,
COc1ccccc1NC(=O)N1CCCCN2[C@H](C1)[C@@H](c1ccc(-c3cccc(C#N)c3)cc1)[C@@H]2CO,0.961 ± 0.14,
C[C@@H]1CCCCO[C@@H](CN(C)Cc2ccc(C(F)(F)F)cc2)[C@H](C)CN([C@H](C)CO)C(=O)c2cc(NC(=O)Nc3cccc4ccccc34)ccc2O1,1.07 ± 0.18,
CO[C@@H]1CN(C)C(=O)c2cc(NC(=O)Nc3cccc(Cl)c3)ccc2OC[C@@H](C)N(C(=O)Nc2c(C)noc2C)C[C@H]1C,1.052 ± 0.0092,
